Experimental data reported in publication PMC12040169 (PLOS Biology, 2025).
The list shows a part of the results.

System: T1, C. trachomatis L2/434/Bu expressing GFP (CTL2-GFP)
T1 construct: L2/434/Bu GFP intracellular growth in HeLa cells
Parameters: species or system HeLa; C. trachomatis total inclusion area by high-content imaging, normalised to DMSO
Conditions: total inclusion area; 28.5 h, 10 µM; inhibitor
Summary of the method: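 High-content imaging followed the bulk GFP/resorufin measurement: fixed, Hoechst-stained cells were scored for GFP inclusions and host nuclei per well. Total inclusion area and count served as growth proxies, nuclei number as the viability proxy. MIC calculation matched the bulk assay.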

Structure (SMILES)	% of control remaining
CC(C)(C)c1csc(Nc2ncc(C(F)(F)F)cc2Cl)n1 [CBK021513]	103.491
Cc1csc(C(=O)N2CCC(c3cc(O)cc(C)n3)CC2)c1 [CBK283466]	82.8538
Cn1c(C(N)=O)cc(=O)n1-c1ccc([N+](=O)[O-])cc1 [CBK015873]	83.2999
CC(NC(=O)c1ncoc1-c1ccc(F)cc1)c1ccncc1 (stereo not drawn) [CBK282319]	81.2148
COc1cc(CNC(=O)NC(=O)C2CCN(CCc3c(-c4ccccc4)[nH]c4ccccc34)CC2)cc(OC)c1OC [CBK034859]	87.9798
Cc1cccc(-c2n[nH]c(=S)n2CC(=O)NCCCS(=O)(=O)Cc2ccccc2)c1 [CBK297942]	90.1695
CCOC(=O)c1[nH]c2ccccc2c1NC(=O)c1ccoc1 [CBK160169]	96.3673
CC1(OCCCO)SC(NC2CCCCCC2)=NC1=O (stereo not drawn) [CBK107927]	96.8602
Cc1ncccc1C(=O)N1CCC(F)CC1 [CBK200398]	100.605
CCCn1cnc2sc(C(=O)O)c(C)c2c1=O [CBK287199]	98.1785
CC1CCC(N(C)Cc2nc3sc4c(c3c(=O)[nH]2)CCC4)CC1 (stereo not drawn) [CBK305876]	17.9579
Cc1cc2nc(-c3cc(NC(=O)c4ccc(C)c([N+](=O)[O-])c4)ccc3O)oc2cc1C [CBK262779]	106.092
CC(C)c1ccc(C(=O)N2CCC(n3cnc4cccnc43)CC2)cc1 [CBK282370]	106.603
Cc1ccc(S(=O)(=O)Nc2nnc(C3CCCCC3)s2)cc1 [CBK022722]	103.162
CC(C)Oc1ccc(C2CC(=O)N(c3cccc(C(=O)O)c3)C2=O)cc1 (stereo not drawn) [CBK291181]	124.736
COc1nc(SC)nc2[nH]ccc12 [CBK085861]	94.4382
Cc1cc(C(=O)NCCCn2ccnc2)no1 [CBK268145]	104.799
CC(=O)Nc1ccc(NC(=O)CSCc2ccc(Cl)cc2Cl)cc1 [CBK131696]	88.0467
O=C(COc1ccccc1C1CC(=O)Nc2ccc3ccccc3c21)Nc1ccccc1 (stereo not drawn) [CBK265704]	91.9706
CC1(C)CC(=O)C=C(SCC(=O)C(C)(C)C)S1 [CBK005523]	17.1542
Cn1cc(C(=O)Nc2cccc(S(=O)(=O)N3CCCCCC3)c2)cn1 [CBK305715]	53.6886
O=C(NCC(CN1CCOCC1)([N+](=O)[O-])[N+](=O)[O-])c1ccccc1 [CBK261339]	101.29
Cc1ccc(OCC(=O)Nc2cccc3nsnc23)c(C)c1 [CBK263816]	97.8487
COc1ccc(OC)c(S(=O)(=O)N2CCC(C(=O)O)CC2)c1 [CBK266835]	104.57
C=CCn1c(SCC(=O)N2c3ccccc3C(C)(c3ccccc3)CC2(C)C)nnc1-c1ccncc1 (stereo not drawn) [CBK059171]	93.2394
COC(=O)c1c(NC(=O)Cn2nc([N+](=O)[O-])c(Cl)c2C)sc2c1CCCC2 [CBK263047]	101.221

Structure (SMILES)	% of control remaining
COc1ccc(Cl)cc1CN(C)C(=O)c1cnn2cc(CCO)cnc12 [CBK307236]	60.0949
CCOC(=O)C1CCN(CC(=O)Nc2ccc(S(N)(=O)=O)cc2)CC1 [CBK266118]	125.834
CC(Oc1nccnc1OCc1ccc(Cl)c(Cl)c1)c1ccncc1 (stereo not drawn) [CBK161609]	72.3538
O=[N+]([O-])c1ccc(C2CNC(c3ccccc3O)O2)cc1 (stereo not drawn) [CBK262298]	104.494
O=C(C1CC(O)CN1)N1CC2(CCCC2)c2c(F)cccc21 (stereo not drawn) [CBK304269C]	85.795
O=C(C1=Cc2ccccc2OC1)N1CCn2cc(C(F)(F)F)nc2C1 [CBK283913]	92.8101
Cn1cc(/C=C(\C(=O)O)C(C(=O)O)=C2C3CC4CC(C3)CC2C4)c2ccccc21 [CBK263749]	96.4042
OCc1ccccc1-c1cn2ccnc2c(Nc2ccc(N3CCOCC3)cc2)n1 [CBK037956]	94.4876
CCOC(=O)c1c(N)sc2c1CC(c1ccccc1)SC2c1ccccc1 (stereo not drawn) [CBK293955]	98.4081
OC1(c2cccnc2)CCCC2CN(Cc3ccc(F)c(F)c3)CC21 (stereo not drawn) [CBK284511]	62.8372
CN1CCN(C(=O)c2ccc(-c3cnc(N)c(-c4ccc(O)cc4)n3)cc2F)CC1 [CBK200421]	87.6216
O=C(Nc1nc2ccc(Br)cc2s1)C1CC1 [CBK026046]	88.0489
COCCCn1c(=O)[nH]c2ncc(-c3ccco3)nc21 [CBK064449]	99.3043
Cc1ncccc1C(=O)NC(Cc1cccs1)c1nccs1 (stereo not drawn) [CBK285153]	72.885
O=C(c1cccc(S(=O)(=O)Nc2ccccn2)c1)N1CCCc2ccccc21 [CBK269645]	92.4375
Cc1c(C(=O)C2=C(O)C(=O)N(CCCN(C)C)C2c2cccnc2)cnn1-c1ccccc1 (stereo not drawn) [CBK269312]	101.735
COc1cc(C2CN=NC23Cc2ccccc2C3=O)cc(OC)c1OC (stereo not drawn) [CBK019341]	76.8255
O=C(c1ccccc1)N1CCCC1c1n[nH]cc1-c1ccncc1 (stereo not drawn) [CBK283433]	102.049
CCOC(=O)Cn1nc(CC)c(Cc2c(Cl)cccc2Cl)c1C [CBK113222]	102.954
COc1ccc(NC(=O)c2cnc(-c3ccc(Cl)cc3)c(-c3ccc(C(C)=O)s3)c2)cn1 [CBK036643]	94.4642
COc1ccc(C(NC(=O)C2CCN(C(=O)NC(C)(C)C)CC2)c2ccccn2)cc1 (stereo not drawn) [CBK060298]	77.0994
C=C1C2(C(=O)NCCn3nc(C)c(Cl)c3C)CCC(C2)C1(C)C (stereo not drawn) [CBK281661]	109.525
COC(=O)c1cccc2c1[nH]c1ccccc12 [CBK001709]	99.4123
O=S(=O)(Nc1ccc2nsnc2c1)c1ccc(F)cc1 [CBK051010]	83.218
Cc1cccc(CC(=O)N2CCCC2c2ccnc3cc(C)nn23)c1 (stereo not drawn) [CBK283472]	60.0892
